Source: PubChem BioAssay AID485344 (National Center for Advancing Translational Sciences (NCATS), 2010)
About 6,900 (2%) of roughly 340,000 compounds were called active. Rule as the data show it: active = inhibition above about 30%; inactive = below that, where a call was filed. The entries are a selection whose mix differs from that of the whole data set. Entries without a call were filed so in the source.

molecular target: D(2) dopamine receptor (Homo sapiens) (UniProt P14416); assay: HTS Assay for Allosteric Antagonists of the Human D2 Dopamine Receptor: Primary Screen for Antagonists; conditions: HEK293 TREx D2 cells, calcium flux, dopamine EC80; at 10 µM; stronger effect = higher value; also: 0% is about no effect
Sequence of UniProt P14416 (P14416 whole entry, looked up): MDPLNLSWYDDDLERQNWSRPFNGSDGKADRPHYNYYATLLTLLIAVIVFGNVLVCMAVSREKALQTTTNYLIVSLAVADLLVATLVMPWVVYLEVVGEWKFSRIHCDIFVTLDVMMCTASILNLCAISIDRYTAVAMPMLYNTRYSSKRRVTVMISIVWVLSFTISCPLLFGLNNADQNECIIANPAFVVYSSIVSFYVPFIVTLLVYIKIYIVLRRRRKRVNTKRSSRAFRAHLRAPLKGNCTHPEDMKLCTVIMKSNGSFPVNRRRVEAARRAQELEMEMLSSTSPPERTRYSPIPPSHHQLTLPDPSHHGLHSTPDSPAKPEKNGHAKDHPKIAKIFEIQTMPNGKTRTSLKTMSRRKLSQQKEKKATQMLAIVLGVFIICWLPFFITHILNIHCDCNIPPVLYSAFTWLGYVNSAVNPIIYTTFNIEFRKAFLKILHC
Procedure, shortened: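 In this primary screen, negative modulation is detected by tracking calcium flux after an EC80 dopamine challenge in inducible HEK293 T-REx D2 cells preexposed to test compound for 180 s.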

Compound | inhibition
Cc1cc(OCC(O)CN2CCN(c3ccccn3)CC2)cc(C)c1Cl (stereo unspecified) | active: 43.2%
Cc1nc(SCC(=O)N2CCN(c3ccccc3)CC2)[nH]c(=O)c1C | 1.43%
CCOC(=O)c1scc(-c2ccccc2)c1S(=O)(=O)N1CCN(c2ccc(Cl)cc2)CC1 | 3.71%
CCN(CC)c1cc(C)c2cc(NC(=O)c3ccc(OC)c(OC)c3)ccc2n1 | 20.5%
Cc1ccc(NC(=O)c2ccc(NC(=O)N3CCSc4ncccc43)cc2)c(Cl)c1 | 0.253%
COc1cccc(CN2C(=O)c3ccccc3Sc3ccc(C(=O)NCc4ccccc4)cc32)c1 | -11.3%
COc1ccccc1C(=O)Nc1c(C(=O)Nc2cc(Cl)ccc2C)sc2nc(C)cc(C)c12 | 1.69%
COc1cccc(N2CCN(C(=O)c3cnc4c(-c5ccccc5)c(C)nn4c3C)CC2)c1 | 11.3%
Cc1ccccc1NC(=O)NCCc1c[nH]c2ccccc12 | 21.4%
COc1ccc(-c2cc(C)no2)cc1S(=O)(=O)N1CCN(c2cccc(C)c2)C(C)C1 (stereo unspecified) | 6.41%
O=C(Nc1ccccc1)c1cnc(N2CCCCC2)c2ccccc12 | 1.06%
COc1cccc(CN(C(=O)COc2ccc(Cl)c(C)c2)C2CCS(=O)(=O)C2)c1 (stereo unspecified) | -2.76%
OC(CSc1ccccc1Cl)CN1CCN(c2ccccc2F)CC1 (stereo unspecified) | active: 74.3%
Cc1ccc(C2CC(=O)n3nc(-c4ccc(Cl)cc4)nc3S2)cc1 (stereo unspecified) | 8.82%
Cc1ccc(Sc2ccc(N3CCC(C(=O)Nc4cc(C)cc(C)c4)CC3)nn2)cc1 | 8.29%
O=C(Cn1cnc2c(nnn2-c2ccccc2)c1=O)NCc1ccco1 | active: 39.9%
Cc1c(Cl)cccc1-n1ncc(C(=O)NCCN2CCN(C)CC2)c1C1CCN(C(=O)OC(C)(C)C)CC1 | 9.87%
O=C(Cn1c(=O)n(-c2ccccc2)c(=O)c2c3c(sc21)CCC3)c1ccc(F)cc1 | 2.44%
Cc1ccc(CNC(=O)CCS(=O)(=O)c2cc3c4c(c2)CCN4C(=O)CC3)cc1 | 4.34%
CCOC(=O)C1(CCOC)CCN(Cc2nc(-c3cccs3)oc2C)CC1 | active: 31.4%
CCc1ccc(NC(=O)CSc2nc3c([nH]c4ccccc43)c(=O)n2-c2ccc(C)cc2)cc1 | 23.3%
O=C(Nc1ccccc1)c1ccc(NCCN2C(=O)CCC2=O)c([N+](=O)[O-])c1 | active: 58.6%
Cc1sc2ncnc(N3CCN(CCOc4ccc(Cl)cc4)CC3)c2c1C | active: 35.5%
Cc1c(Cl)cccc1NC(=O)c1oc2ccc(S(=O)(=O)N3CCCCCC3)cc2c1C | -9.48%

Compound | inhibition
CCOC(=O)c1cc2c(=O)n3ccccc3nc2n(Cc2ccco2)c1=NC(=O)c1ccc(C(C)(C)C)cc1 | -5.03%
Cc1ccc(C)c(NC(=O)CN(C)C(=O)c2ccc3c(=O)n4c(nc3c2)CCC4)c1 | active: 32.7%
O=C(Nc1cccc(F)c1)c1ccc2oc(=O)n(Cc3ccccc3)c2c1 | -15.7%
CCOC(=O)c1c(NC(C)=O)c2c3c(sc2n1Cc1c(C)cc(C)cc1C)CCCC3 | 4.79%
CCOc1ccc(N(CC(=O)NCc2ccc(OC)cc2)S(=O)(=O)c2c(C)[nH]c(=O)[nH]c2=O)cc1 | -7.82%
CCN1CCCC1CNC(=O)c1ccc(Sc2ccccc2Cl)c([N+](=O)[O-])c1 (stereo unspecified) | active: 72.2%
COc1cccc(C(=O)N(Cc2cccc(F)c2)C2CCS(=O)(=O)C2)c1 (stereo unspecified) | 7.34%
Cc1ccc2c(c1)N(CC(=O)Nc1ccccc1C(F)(F)F)C(=O)c1cccnc1O2 | 4.09%
COc1ccc(Cn2ccnc2SCC(=O)Nc2ccc3c(c2)OCCO3)cc1 | -7.07%
COc1ccc(NC(=O)CC2Oc3ccc(C)cc3NC2=O)cc1Cl (stereo unspecified) | 18.1%
COc1cc2c(cc1OC)C(COc1ccc3c(C)cc(=O)oc3c1)N(C(=O)Cc1ccc(F)cc1)CC2 (stereo unspecified) | -7.76%
Cc1cc(C)cc(-n2ccn(CC(=O)NCCc3ccccc3)c(=O)c2=O)c1 | 23.1%
CN=c1scc(-c2ccc(F)cc2)n1/N=C/c1ccc(O)c(O)c1 | active: 76.2%
Cc1cccc(N(CC(=O)NCCc2ccccc2)S(=O)(=O)c2ccccc2)c1C | 2.29%
Cc1ccc(-c2csc(-c3c(N)c(C(=O)c4ccc5c(c4)OCO5)n4ccccc34)n2)cc1C | 1.6%
COc1ccc(CCNC(=O)c2cc3c(=O)n4cccc(C)c4nc3n2C)cc1 | -11%
CCOc1ccc(C2C(=O)N(C3CCCCCC3)CC(=O)N2Cc2ccc(C)cc2)cc1OC (stereo unspecified) | 3.53%
O=S(=O)(c1ccc(F)cc1)N1CCc2ccccc21 | active: 36%
CCC(CC)C(=O)Nc1nnc(S(=O)(=O)N(C)c2cc(C)cc(C)c2)s1 | -11.5%
Cc1cccc(CSCCNC(=O)C2CCN(S(=O)(=O)Cc3ccccc3)CC2)c1 | 7.07%
COc1ccc2c(C)c(CCC(=O)NCc3cccc(Cl)c3)c(=O)oc2c1 | -9.44%
CCOc1cc(C(=O)NN2CCOCC2)cc(OCC)c1OCC | active: 36.3%
COc1ccc(-n2c(/C=C/c3cccc4ccccc34)nc3ccccc3c2=O)cc1OC | -27.3%
CCC(Sc1nc2nccnc2c(=O)n1Cc1ccccc1Cl)C(=O)NC1CCCCC1 (stereo unspecified) | 4.93%

Compound | inhibition
Cc1ccc2nc(NCc3ccccc3)c3nncn3c2c1 | -8.18%
CCn1c(=O)c2cc(C(=O)Nc3cccc(C(F)(F)F)c3)sc2c2ccccc21 | 3.37%
COc1ccc(C(=O)Nc2ccc(-c3nc4ncccc4o3)cc2C)cc1Br | 2.96%
CCNC(=O)CCCN1C(=O)CCn2nc(-c3cccn3C)cc21 | 3.34%
CN(C(=O)CSc1nc2ccc(NC(=O)c3cccc(F)c3)cc2s1)c1ccccc1 | 3.94%
COc1cc(Cl)c(C)cc1NC(=O)CC1Oc2ccccc2NC1=O (stereo unspecified) | 6.15%
Cc1ccc(Cl)cc1N1CCN(CC(O)COCc2ccco2)CC1 (stereo unspecified) | active: 97.4%
Fc1ccc(CNCCCSc2nnnn2-c2ccccc2)cc1 | -6.83%
COc1ccc(NC(=O)CSCc2cc(=O)c3cc(C)ccc3[nH]2)cc1 | 5.13%
COc1ccc(Cn2c(C(=O)O)c(CNCc3ccc(OC)cc3OC)c3ccc(C)cc32)cc1 | 6.85%
COc1ccc(CCCc2nnc(SCC(=O)Nc3cc(F)ccc3C)o2)cc1 | 16.7%
Nc1nnc(-c2ccccc2F)s1 | active: 44.9%
CCOC(=O)c1ccccc1NC(=O)c1cn(CC(C)C)c(=O)c2cc(OC)c(OC)cc12 | -4%
COc1ccc(N2CCC(CNS(=O)(=O)c3cccc(C(F)(F)F)c3)C2)cc1 (stereo unspecified) | active: 38%
COc1ccc(OC)c(-c2noc(CSc3nnc(-c4ccccc4)n3-c3ccccc3)n2)c1 | 1.45%
CC(C)n1ncc2c(C(=O)NCc3ccccc3CN(C)C)cc(C3CC3)nc21 | active: 79.9%
Cc1ccc(OCC(=O)Nc2nnc(S(=O)(=O)N3CCc4ccccc43)s2)cc1 | 20.6%
O=C(CN1CCSC1=O)N1CCN(S(=O)(=O)c2ccccc2)CC1 | active: 37.3%
COc1ccc(N2CCN(S(=O)(=O)c3ccc(C4CCCCC4)cc3)CC2)cc1 | -7.27%
COc1ccc(Cl)cc1NC(=O)CSc1nc(=O)n(Cc2ccco2)c2c1CCC2 | -16.2%
O=C(CSc1nnc(-c2ccncc2)n1-c1ccccc1)Nc1ccc(F)cc1 | 14%
CCOc1ccccc1CNC(=O)CSc1n[nH]c(-c2ccccc2)n1 | 2.58%
CC(C)c1noc(-c2ccccc2OCC(=O)Nc2ccc([N+](=O)[O-])cc2)n1 | 13.6%
COc1ccc(OC)c(C2C(C(=O)Nc3ccc(C)cc3C)=C(C)Nc3c(C(=O)Nc4ccc(F)cc4)cnn32)c1 (stereo unspecified) | 1.59%

Compound | inhibition
Cc1cc(=O)n(Cc2cccc(Cl)c2)c2c1c(C)nn2C | -0.585%
Cc1ccc(NC(=O)Nc2nnc(SCC(=O)N3CCCCC3)s2)cc1 | -13.4%
CC(C)c1ccc2c(c1)NC(c1ccc(F)cc1)=NC(c1cccs1)=N2 | 23.2%
Fc1ccc(-c2noc3ncnc(NCCc4ccc(Cl)cc4)c23)cc1 | -5.77%
COc1cccc(N2CC(NC(=O)c3cc4ccccc4o3)CC2=O)c1 (stereo unspecified) | 19%
COc1ccc2c(c1)c(C(O)CN1CCC(Cc3ccccc3)CC1)c(C)n2C (stereo unspecified) | active: 50.8%
COc1cccc(CNC(=O)N2CCc3c(sc4c3CCCC4)C2c2ccc(F)cc2)c1 (stereo unspecified) | -4.48%
C=CCn1c(-c2c(C)nc3cc(C)ccn23)n[nH]c1=S | active: 35.6%
Cc1nc2ncnn2c(C)c1CCC(=O)N1CCN(c2ccc(F)cc2)CC1 | 14%
Cc1cccc(C(=O)NCCc2nc3ccccc3n2Cc2ccccc2Cl)c1 | 4.55%
Cc1cc(Nc2cccc(C(F)(F)F)c2)nc2ccc(NC(=O)Cc3ccc(Cl)cc3)cc12 | 7.43%
COc1ccc(OCC(=O)Nc2ccc(-c3nc4cc(Cl)ccc4o3)cc2)cc1 | 1.45%
CCOc1ccccc1NC(=O)Cn1c(=O)n(CC(=O)NCc2ccccc2Cl)c(=O)c2sccc21 | -18.2%
CCCN(CCC)C(=O)Cn1c(=O)n(-c2ccc(OC)cc2OC)c(=O)c2c3c(sc21)CCC3 | -4.69%
CCOc1ccc(CNC(=O)c2ccc3c(c2)c(C)c(C)n3C)cc1 | 7.71%
COc1ccc(CCNC(=O)CCCCn2c(=O)c3ccccc3n(Cc3cc(C)ccc3C)c2=O)cc1OC | 5.19%
Cc1ccc(Sc2ccc(N3CCCC(C(=O)Nc4ccc(F)c(Cl)c4)C3)nn2)cc1 (stereo unspecified) | 2.29%
CCOc1ccc(-n2c(SCc3ccccc3)nc3c([nH]c4ccccc43)c2=O)cc1 | -6.58%
CCCn1c2ccccc2c2cnn(CC(=O)NCC3CCN(Cc4ccc(C)cc4)CC3)c(=O)c21 | -0.258%
CCCCOc1cccc(C(=O)Nc2sc3c(c2C(=O)OCC)CCCC3)c1 | -4.21%
COc1cccc(NC(=O)CSc2nc(=O)n(Cc3cccnc3)c3c2CCC3)c1 | -12.2%
Cc1cccc2c(=O)cc(CSc3ccccc3NC(=O)C(C)C)[nH]c12 | -5.99%
Cc1ccc2nc3c(cc(C#N)c(=O)n3-c3nnc(SCc4ccc(F)cc4)s3)c(=O)n2c1 | -12.6%
CC(C)(C)c1ccc(OCC(=O)Nc2ccc(C(=O)OC3CCCCC3)cc2)cc1 | -11.6%
